Laboratory results as given in PubChem BioAssay AID1745845 (National Center for Advancing Translational Sciences (NCATS), 2022).
Out of some 360,000 compounds screened, about 2,600 (0.72%) were called active. Inconclusive means that the source gave no clear call. Such entries were picked first, then a sample of the others. The call rests on the fitted dose curve; in most records, active means well fitted inhibition curve with a large enough effect; inconclusive means small, poorly fitted or top-dose-only effect; inactive means no such curve, though single readings can be large or run the other way. Potencies of inconclusive entries are doubtful fits and often do not repeat.

Test: Primary qHTS for Inhibitors of ATXN expression; further: nearly all actives have a fitted effect of over 55% in size
Conditions: HEK-293 ATXN2-luciferase reporter, luminescence, 24 h; activity change, negative = inhibition: at 57 µM (top of the series)
Method in brief: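 qHTS (up to 57 uM final) was run with 24 h compound exposure of reporter cells at 37 °C. Each well was multiplexed: SteadyGlo luminescence measured ATXN2-luciferase expression after a fluorogenic Gly-Phe-AFC viability readout (25 uM final).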
On the % scale 0 is the no-effect control and ±100 the full control effect; potency means the concentration at half of the fitted maximal effect; tags describe the fitted curve by direction and shape.

SMILES | activity change, negative = inhibition | Potency
Cc1ccc(N=C(NO)c2nonc2N)c(C)c1 | inactive: 17.4% | –
NC(COCc1ccccc1)c1csc(Nc2cc(Oc3ccccc3)ncn2)n1 (configuration not stated) | – | inconclusive: 35.5 µM [inhibitor, single point]
CCCCNS(=O)(=O)c1ccc2nc(SCC(=O)Nc3sccc3C#N)[nH]c2c1 | – | inconclusive: 22.4 µM [inhibitor, single point]
O=C(CN(C(=O)CCC(=O)Nc1ccccn1)c1ccc(F)cc1)NCc1ccc(F)cc1 | inactive: -6.71% | –
COc1cc(Cl)c(C)cc1Nc1c2c(nc3ccccc13)CCC2 | – | inconclusive: 20 µM [inhibitor, partial curve, poor fit]
CCCNC(=O)c1cc2c(c(-c3cccc(-c4ccc(F)cc4)c3)n1)[C@@H](CCO)N(S(=O)C(C)(C)C)C2 (some centres not stated) | – | inconclusive: 28.2 µM [inhibitor, single point]
CCOC(=O)C1(Cc2ccccc2C)CCCN(C(=O)CCn2nccc2C)C1 (configuration not stated) | inactive: -19.7% | –
CCOC(=O)c1c(NC(=O)CSc2nnnn2-c2ccccc2OCC)sc2c1CC(C)(C)NC2(C)C | – | inconclusive: 39.8 µM [inhibitor, single point]
CCCSc1cc(NCCOC(C)=O)c([N+](=O)[O-])c2nonc12 | inactive: -4.87% | –
COc1cccc(CNC(=O)CN(c2ccc(C(C)C)cc2)S(=O)(=O)c2c(C)n[nH]c2C)c1 | – | inconclusive: 39.8 µM [inhibitor, partial curve, poor fit]
Cc1ccc2c(c1)-c1c(cnn1CC(=O)N1CCCN(Cc3ccccc3F)C1)CO2 | – | inconclusive: 39.8 µM [inhibitor, single point]
CNC(=O)c1cccc(NC(=O)c2cc(-c3ccccc3)nc3c2cnn3C(C)C)c1 | – | inconclusive: 39.8 µM [inhibitor, single point]
CCC1Nc2ncnc(N3CCc4ccccc4C3)c2N(Cc2ccc(Br)cc2)C1=O (configuration not stated) | – | inconclusive: 39.8 µM [inhibitor, single point]
O=C(Nn1cc(C(=O)Nc2ccccc2F)c2ccccc2c1=O)c1cnccn1 | – | inconclusive: 11.9 µM [inhibitor, partial curve, poor fit]
CC(NC(=S)NC1CCC(C(C)(C)C)CC1)c1ccccc1 (configuration not stated) | – | inconclusive: 28.2 µM [inhibitor, single point]
CCOc1ccc(S(=O)(=O)n2cnc3cc(C)c(C)cc32)cc1 | – | inconclusive: 4.47 µM [inhibitor, partial curve]
Nc1nc(Cl)cc(N2CCC(c3cc(-c4ccc(Cl)cc4Cl)n[nH]3)CC2)n1 | – | inconclusive: 28.2 µM [inhibitor, partial curve]
COc1ccc(C(=O)NCCN2CCCC2)cc1OC | inactive: -2.37% | –
N#Cc1ccccc1/C=N/Nc1nc(-c2ccccc2)c2cc(Cl)ccc2n1 | – | inconclusive: 3.16 µM [inhibitor, partial curve, poor fit]
O=C(c1cc(Cl)cc(Cl)c1)N1CCC(=O)N(C(COCc2ccccc2)Cc2ccccc2)CC1 (configuration not stated) | – | inconclusive: 39.8 µM [inhibitor, single point]
O=C(Nc1ccc(SC(F)F)cc1)c1ccc2c(=O)n3c(nc2c1)CCC3 | inactive: -20.6% | –
Cc1ccc(Cn2cnc3ccccc32)cc1 | inactive: 6.14% | –
CCCc1ccc(OCc2ccc(C(=O)N3CCN(c4ccccn4)CC3)o2)c(OC)c1 | – | inconclusive: 39.8 µM [inhibitor, single point]

SMILES | activity change, negative = inhibition | Potency
Cc1ccc(N(CC(=O)N2CCN(c3ccc(F)cc3)CC2)S(=O)(=O)c2c(C)nn(C)c2C)cc1 | inactive: -21.6% | –
CC(C)(C)c1cc[n+](C2=C([O-])c3ccccc3C(=O)/C2=N\S(=O)(=O)c2ccccc2)cc1 | – | inconclusive: 44.7 µM [inhibitor, partial curve, poor fit]
Cc1nc(N2CCN(Cc3ccccc3)CC2)nc2c1CCC2 | inactive: -11.3% | –
COc1ccccc1-c1ccc2c(c1)C(C)(Cc1cccc(C#N)c1)C(=O)N2 (configuration not stated) | – | inconclusive: 35.5 µM [inhibitor, single point]
Cc1ccc(S(=O)(=O)N(CCCN2CCCC2=O)Cc2cc3c(C)ccc(C)c3[nH]c2=O)cc1 | inactive: -8.87% | –
COc1cc(NC(=O)c2cc3ccccc3cc2OC)ccc1NC(=O)c1cccs1 | – | inconclusive: 7.94 µM [inhibitor, partial curve, poor fit]
Cc1nc(SCC(=O)N2CCN(c3ccccc3)CC2)n[nH]1 | inactive: -9.94% | –
NC(N)=N/N=C/c1ccc(OCc2ccccc2Cl)cc1 | – | active: 14.1 µM
Cc1c(N)c(C(C)(C)C)cc(C(C)(C)C)c1[N+](=O)[O-] | – | inconclusive: 39.8 µM [inhibitor, single point]
CC(=O)Nc1cc(-c2ccccc2N(C)C)cn2c(-c3ccc(F)c(Cl)c3)cnc12 | – | inconclusive: 39.8 µM [inhibitor, partial curve, poor fit]
CC(C)c1nnc(NC(=O)c2ccc3c(c2)OCO3)s1 | – | inconclusive: 18.9 µM [inhibitor, single point]
O=C(CCCN1C(=O)/C(=C\c2cccc(Br)c2)SC1=S)Nc1cccnc1 | – | inconclusive: 33.6 µM [inhibitor, single point]
COc1ccc(-n2cnnc2SCC(=O)N(C)C2CCS(=O)(=O)C2)cc1 (configuration not stated) | inactive: 6.32% | –
NC(=O)c1cccc(Nc2nc(C(N)Cc3ccc(C(F)(F)F)cc3)cs2)n1 (configuration not stated) | – | active: 28.2 µM
O=C(COc1cccnc1[N+](=O)[O-])Nc1c(Cl)cccc1Cl | inactive: 2.93% | –
Cc1nc(CN(C)c2ncnc3ccc(-c4ccc5c(c4)OCO5)cc23)cs1 | – | inconclusive: 12.6 µM [inhibitor, partial curve]
Clc1ccc(CN2CCc3nc(Nc4ccc5c(c4)OCCO5)ncc3C2)cc1 | – | inconclusive: 39.8 µM [inhibitor, single point]
C[C@@H]1CCCCO[C@H](CN(C)C(=O)Cc2ccccc2)[C@H](C)CN([C@@H](C)CO)C(=O)c2cc(NC(=O)Nc3ccc(F)cc3)ccc2O1 | – | inconclusive: 35.5 µM [inhibitor, partial curve, poor fit]
c1ccc2c(-c3c[nH]c4ccccc34)c3ccccc3nc2c1 | – | inconclusive: 22.4 µM [inhibitor, partial curve, poor fit]
S=C(Nc1ccc(Br)cc1)NC1CCCC1 | inactive: 5.7% | –
CCOC(=O)N1CCC(N(CCOC)C(=O)Nc2ccc(Cl)c(Cl)c2)CC1 | – | inconclusive: 35.5 µM [inhibitor, partial curve, poor fit]
CC(C)Cc1nc2oc3c(Cl)ncnc3c2c2c1CCC2 | – | inconclusive: 35.5 µM [inhibitor, single point]
CSc1ccc(/C=C/C(=O)c2c(O)cc(C)oc2=O)cc1 | inactive: 44.3% | –

SMILES | activity change, negative = inhibition | Potency
CCNC(=S)NCCN1CCCCC1 | inactive: 9.13% | –
CCc1ccc(Sc2cc(C(=O)NCCCN3CCCC(C)C3)c3ccccc3n2)cc1 (configuration not stated) | – | inconclusive: 25.1 µM [inhibitor, single point]
COC(=O)c1cc(=O)n(CCc2ccc(OC)c(OC)c2)c(=Nc2ccc(F)c(Cl)c2)s1 | – | inconclusive: 22.4 µM [inhibitor, partial curve, poor fit]
CCN(CC(=O)Nc1ccc(N2CCOCC2)cc1)C(=O)c1ccc(C(F)(F)F)cc1 | – | inconclusive: 0.0075 µM [inhibitor, full curve, poor fit]
CN(C)CCCNc1ccc(-c2cc(Nc3cccc(Cl)c3)ncn2)cn1 | – | inconclusive: 25.1 µM [inhibitor, single point]
CC1c2c([nH]c3ccccc23)CCC1C(=O)O (configuration not stated) | – | inconclusive: 1.12 µM [inhibitor, partial curve]
O=C(Nc1cccc(C(=O)N2CCN(c3ccc(F)cc3)CC2)c1)c1nsc2ccccc12 | – | inconclusive: 15.8 µM [inhibitor, single point]
COC(=O)C(Cc1c[nH]c2ccccc12)NC(=O)c1cc(-c2ccc(OC)c(OC)c2)oc1C (configuration not stated) | inactive: 12.4% | –
CCCCCCCCN1C(=O)[C@H](CC(=O)NCC2CCCCC2)C[C@@]2(C(=O)OCC)CCCC=C12 | – | inconclusive: 39.8 µM [inhibitor, single point]
O=C(O)c1cccnc1SC1CC(=O)N(Cc2ccccc2)C1=O (configuration not stated) | inactive: -0.708% | –
CCOC(=O)C(N)CSC1CC(=O)N(c2ccc(OC)cc2)C1=O (configuration not stated) | inconclusive: -45.9% [inhibitor] | –
CCN(CCCNC(=O)c1cc2c(=O)[nH]c3ccc(C)cc3c2s1)Cc1ccccc1 | – | inconclusive: 28.2 µM [inhibitor, single point]
Cc1cccc(N2CCN(C(=S)Nc3ccc4nc(N5CCOCC5)cc(C)c4c3)CC2C)c1 (configuration not stated) | inactive: 1.48% | –
COC(=O)c1cccc(-n2c(C)cc(C=O)c2C)c1 | inactive: 10.6% | –
Fc1ccc(-c2nnc(CN3CCC(c4nc5ccccc5s4)CC3)o2)cc1 | inactive: 12.5% | –
O=c1cc(C(Cl)(Cl)Cl)oc2c1ccc1ccccc12 | – | inconclusive: 17.8 µM [inhibitor, partial curve]
O=S(=O)(O)c1cc(O)c(N=Nc2ccc(O)cc2O)c2ccccc12 | – | inconclusive: 15.8 µM [inhibitor, partial curve, poor fit]
CNC[C@@H]1OCc2ccccc2-c2c(n(C)c3ccccc23)C(=O)N([C@H](C)CO)C[C@H]1C | – | inconclusive: 39.8 µM [inhibitor, single point]
Cc1ccccc1-c1cc2nc(NCCc3ccncc3)n(C)c(=O)c2s1 | – | inconclusive: 31.6 µM [inhibitor, single point]
COC(=O)N/N=C/c1cc([N+](=O)[O-])cc(Br)c1O | – | inconclusive: 39.8 µM [inhibitor, single point]
CC1CCN(S(=O)(=O)c2ccc3c4c2CC(=O)N4CC(C)S3)CC1 (configuration not stated) | – | inconclusive: 15.8 µM [inhibitor, partial curve, poor fit]
